Data on 27 molecules can be found in PubChem BioAssay AID1508642 (National Center for Advancing Translational Sciences (NCATS), 2021).

The campaign covered roughly 43,000 compounds. About 200 (0.47%) were called active. About 12% were inconclusive and are not listed. Calls follow the shape of the dose curve; as a rule, active = well fitted cell-killing curve with a large enough effect; inconclusive = small, poorly fitted or top-dose-only effect, or effect the other way; inactive = flat fitted curve, though single readings scatter. This is one part of the list.
% is scaled to controls: 0 for no effect and ±100 for the full control effect.

This test is described as follows: Cell viability qHTS assay in S16 Pmp22-F2sN cells. Also: nearly all actives have a fitted effect of over 65% in size. Particulars: S16 Pmp22-F2sN Schwann cells (luciferase reporters placed in the Pmp22 gene) viability, CellTiter-Glo, 24 h; series mostly up to 57.5 µM; activity change, negative = cytotoxicity: at the top concentration. In short, it runs like this:
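Rat S16 Schwann reporter line, 24 h treatment with library compounds delivered at 23 nL per well. Cell viability by CellTiter-Glo luminescence.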
For orientation: In qHTS, concentration-response curves come from the screen itself.
In the case of `CCOCCCn1c(SCC(=O)Nc2ccccc2Cl)nc2c(oc3ccccc32)c1=O`, the “activity change, negative = cytotoxicity” value is inactive: 2.4%. Take `COCCNC(=O)c1ccc(-c2nc(CS(=O)(=O)c3ccccc3)c(C)o2)cc1`: the “activity change, negative = cytotoxicity” value is inactive: 1.19%. As for `CN1C(=O)C2(SCC(=O)N2c2ccc(Cl)cc2)c2ccccc21` (configuration not stated), the figure is inactive: 2.32%; as for `O=C(Nc1ccc(F)c(Cl)c1)N1CCC(CN2CCOCC2)CC1`, inactive: 4.56%. In the case of `CCc1ccc(-n2nc3ccc(NC(=O)COc4ccc(OC)cc4)cc3n2)cc1`, the “activity change, negative = cytotoxicity” value is inactive: 8.27%.

Consider `COc1cccc(Cn2c(CNS(=O)(=O)c3ccc(Cl)s3)nc3cccnc32)c1`, for which the “activity change, negative = cytotoxicity” value was inactive: -13.6%. As to `CCc1nn2c(=O)c(S(=O)(=O)Nc3ccc(C(C)C)cc3)c(C)nc2s1`, the “activity change, negative = cytotoxicity” value is inactive: 6.46%. For `O=C(CSc1nc2c(c(=O)[nH]1)CN(Cc1ccc3c(c1)OCO3)CC2)Nc1ccccc1Cl` the value was inactive: 1.83%. `CCOc1ccc(NC(=O)CSc2nc3ccsc3c(=O)n2CCCCCC(=O)O)cc1`: the “activity change, negative = cytotoxicity” value is inactive: -7.59%. As for `CC(=O)N1CCCc2cc(S(=O)(=O)N3CCCC(C(=O)NCc4ccc(C)cc4)C3)ccc21` (configuration not stated), the figure is inactive: -21.5%; as for `CC(C)CCNC(=O)C(Cc1ccccc1)NS(=O)(=O)c1ccc2c(c1)c(=O)n(C)c(=O)n2C` (configuration not stated), inactive: 0.346%. As for `Cc1ccc(S(=O)(=O)C(CNC(=O)COc2ccccc2)c2ccco2)cc1` (configuration not stated), the figure is inactive: -5.96%.

Consider `CCCOc1ccc(-c2cc(C(F)(F)F)c(C#N)c(SCCC(=O)O)n2)cc1`, for which the “activity change, negative = cytotoxicity” value was inactive: -23.7%.

For `CCCN(CCC)C(=O)Cn1c(=O)n(CCCCCC(=O)NCc2ccccc2Cl)c(=O)c2sccc21`, the “activity change, negative = cytotoxicity” value is inactive: 6.27%. As for `Cc1ccc(CNC(=O)CSc2nc3n[nH]c(C)c3c(=N)n2-c2ccccc2Cl)cc1`, the figure is inactive: 19.9%; as for `O=C(Nc1ccccc1C(=O)OCc1cc(=O)n2nc(C3CC3)sc2n1)c1cccc(F)c1`, inactive: -0.946%.

With `CS(=O)(=O)N1CCc2cc(C(=O)Nc3ccc(C(F)(F)F)cc3)ccc21`, the “activity change, negative = cytotoxicity” value was inactive: 4.61%. For the molecule `Cc1cc(C)n(-c2nc3cc(Cl)ccc3nc2N2CCN(c3ccccc3F)CC2)n1`, the “activity change, negative = cytotoxicity” value was inactive: 2.19%. For `CCOc1ccccc1CNCCSc1nnnn1C`, the “activity change, negative = cytotoxicity” value was inactive: 13.3%.

Consider `CCOCCn1ccc2c(OCC(=O)Nc3cccc(F)c3)cccc2c1=O`, for which the “activity change, negative = cytotoxicity” value was inactive: -25.4%.

Regarding `CCOc1cc(-c2ccc(OC(=O)c3ccccc3)c(OC)c2)cc(=O)c2c(C)oc(C)c12`, the “activity change, negative = cytotoxicity” value is inactive: 0.919%. As for `COc1cccc(Cc2nc3ccccc3nc2SCC(=O)Nc2cc(OC)ccc2OC)c1`, the figure is inactive: 5.4%; as for `COc1ccc(OC)c2sc(N3CCN(C(=O)C4COc5ccccc5O4)CC3)nc12` (configuration not stated), inactive: 0.823%; as for `Cc1ccc(C2c3c(oc4ccccc4c3=O)C(=O)N2c2nnc(C)s2)cc1` (configuration not stated), inactive: 3.83%. For `CCN(CCCNC(=O)CN1N=C(c2ccccc2)CCC1=O)c1ccccc1`, the “activity change, negative = cytotoxicity” value is inactive: -2.14%. For `O=c1c2sc3ccccc3c2n(Cc2ccccc2)c(=O)n1CCc1ccccc1` the value was inactive: 16.4%. For `COc1ccc(C)cc1Nc1ncnc2c1c(-c1ccccc1)cn2-c1ccc(C)cc1` the value was inactive: 1.41%.
